Reference: PubChem BioAssay AID485367 (National Center for Advancing Translational Sciences (NCATS), 2010)
Hit rate of the full screen: of about 330,000 compounds, about 560 (0.17%) were called active. The inconclusive results got no clear call from the source; some entries with a clear call stand among them for comparison. Calls follow the shape of the dose curve; as a rule, active = well fitted inhibition curve with a large enough effect; inconclusive = small, poorly fitted or top-dose-only effect, or effect the other way; inactive = flat fitted curve, though single readings scatter. No potency is given beside an inconclusive call; the fits are too rough.

molecular target: ATP-dependent 6-phosphofructokinase (Trypanosoma brucei brucei) (UniProt O15648); assay: qHTS Assay to Find Inhibitors of T. brucei phosphofructokinase; also: nearly all actives have a fitted effect of over 60% in size;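 as to activity, negative = inhibition: 0% = uninhibited 1x PFK enzyme wells and -100% = no-enzyme wells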; details: T. brucei PFK, ADP-Glo luminescence; activity, negative = inhibition: at 57.5 µM (top of the series)
Sequence of UniProt O15648 (O15648 whole entry, looked up): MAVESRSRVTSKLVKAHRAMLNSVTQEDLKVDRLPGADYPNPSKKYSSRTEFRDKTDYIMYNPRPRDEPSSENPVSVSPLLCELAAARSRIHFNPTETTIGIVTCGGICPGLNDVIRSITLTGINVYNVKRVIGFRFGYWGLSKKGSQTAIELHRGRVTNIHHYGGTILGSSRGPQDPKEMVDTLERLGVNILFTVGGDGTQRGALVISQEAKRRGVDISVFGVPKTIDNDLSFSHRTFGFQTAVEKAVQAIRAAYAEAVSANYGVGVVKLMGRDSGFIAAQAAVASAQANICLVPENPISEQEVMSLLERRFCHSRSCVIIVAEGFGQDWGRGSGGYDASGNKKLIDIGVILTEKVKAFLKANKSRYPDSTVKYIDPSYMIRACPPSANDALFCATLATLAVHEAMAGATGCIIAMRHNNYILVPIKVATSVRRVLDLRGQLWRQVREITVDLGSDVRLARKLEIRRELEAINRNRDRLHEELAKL
How it was run: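 In TEA buffer at pH 8.0 with 5 mM MgCl2, enzyme (1.25 nM) converted F6P (0.5 mM) and ATP (0.1 mM) for 45 min at room temperature. ADP product was read by luciferase luminescence.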
Potency is read from the fitted curve at half-maximal effect; tags tell the direction and shape of the fitted curve.

Row | Structure (SMILES) | Potency | activity, negative = inhibition
1 | S=C(NCc1ccco1)Nc1ccc(Cl)c(Cl)c1 | inconclusive [falling, single point] | –
2 | O=C(Nc1ccccc1)n1ccc(-c2ccc(-n3ccnc3)cc2)n1 | inconclusive [falling, single point] | –
3 | CS(=O)c1nc(-c2ccc(Br)cc2)cc(-c2ccccc2)c1C#N (stereo unspecified) | – | inactive: 14.5%
4 | O=C1CSc2ccc(C(=O)Nc3cccc(S(=O)(=O)Nc4ccc(Br)cc4)c3)cc2N1 | inconclusive [falling, partial curve] | –
5 | CN(C)C(=S)Nc1ccc2c(c1)OCO2 | – | inactive: -20.2%
6 | O=C(N/N=C/c1ccc(O)c(O)c1)c1ccc(-n2cnnn2)cc1 | inconclusive [activator, single point] | –
7 | COc1cccc(CNC(=O)CN2c3cccc4cccc(c34)S2(=O)=O)c1 | inconclusive [falling, single point] | –
8 | C=CCn1c(/N=C/c2ccc(OC)cc2)nc2ccccc21 | inconclusive [falling, single point] | –
9 | O=C(O)C1CC(c2ccc(F)cc2)=NO1 (stereo unspecified) | inconclusive [falling, single point] | –
10 | Cc1ccc(NC(=O)c2cc(-c3ccccc3O)n[nH]2)cc1C | inconclusive [activator, single point] | –
11 | O=C(CSc1nc2ccccc2s1)N1CCN(C(=O)c2ccco2)CC1 | inconclusive [falling, single point] | –
12 | COc1ccc(-n2c(C)cc(/C=C3\SC(=S)NC3=O)c2C)cc1 | – | inactive: -5.99%
13 | O=C(CSc1n[nH]c(=O)[nH]c1=O)Nc1ccc2c(c1)C(=O)c1ccccc1C2=O | inconclusive [falling, single point] | –
14 | CN(Cc1ccccc1)C(=O)c1ccc(NC(=O)Cc2ccc([N+](=O)[O-])cc2)cc1 | inconclusive [falling, single point] | –
15 | O=C(N/N=C/c1cccc(C(F)(F)F)c1)c1cc2c(s1)-c1ccccc1CC2 | – | inactive: 0.349%
16 | Nc1sc(-c2ccccc2)cc1C(=O)O | – | inactive: 3.56%
17 | CC(C)n1c2ccccc2c2nnc(SCC(=O)Nc3ccccc3C(=O)O)nc21 | inconclusive [activator, single point] | –
18 | S=C(NC1CC2CCC1C2)N1CCN(c2cccc(Cl)c2)CC1 (stereo unspecified) | inconclusive [falling, partial curve, poor fit] | –
19 | CC(=O)Nc1ccc(NC(=O)CSc2ncc(C(=O)Nc3ccc(F)cc3)c(=O)n2C)cc1 | inconclusive [falling, single point] | –
20 | Cc1cc[n+](-c2[nH]c(=O)sc2/C=N/NC(=O)c2ccccc2[O-])cc1C | inconclusive [falling, single point] | –
21 | CCN(CC)c1ccc(S(=O)(=O)N2CCOCC2)cc1NC(=O)CSc1nnc(N)s1 | inconclusive [falling, single point] | –
22 | Cc1nn(Cc2ccc(Cl)c(Cl)c2)c(C)c1NC(=O)c1cc(C2CC2)on1 | active: 9.53 µM | –
23 | CN1CCN(c2ccccc2NC(=O)c2ccc(-c3ccccc3)cc2)CC1 | – | inactive: -0.553%

Row | Structure (SMILES) | Potency | activity, negative = inhibition
24 | CCOC(=O)C1=C(C)Nc2ccccc2N=C1NC(=O)C1CCN(C(=O)c2ccccc2C)CC1 | – | inactive: -1.88%
25 | O=C(COC(=O)c1ccc([N+](=O)[O-])s1)c1ccc[nH]1 | inconclusive [falling, single point] | –
26 | c1ccc(Cc2nn3c(COc4ccccc4)nnc3s2)cc1 | inconclusive [falling, partial curve] | –
27 | N#Cc1cccc(N=Cc2c(O)ccc3ccccc23)c1 | inconclusive [falling, single point] | –
28 | O=c1c2ccccc2nc(N/N=C/c2ccc(O)cc2)n1O | inconclusive [falling, partial curve] | –
29 | COc1cc2[nH]c(Cl)c([N+](=O)[O-])c2cc1OC | inconclusive [falling, single point] | –
30 | Cc1ccccc1-c1cc(C(=O)NCc2cccc(C(F)(F)F)c2)n(CC2CC(c3cccnc3)=NO2)n1 (stereo unspecified) | – | inactive: -8.03%
31 | Cc1ccc2cc(NC(=O)c3ccccc3C)ccc2n1 | – | inactive: -2.36%
32 | O=[N+]([O-])c1c(NCCCO)cc(SCc2ccco2)c2nonc12 | inconclusive [falling, single point] | –
33 | CCN(CC)c1nc2ccccc2nc1-n1nc(C)cc1C | – | inactive: 0.272%
34 | COC(=O)c1c(SCC(=O)NC2CCCCC2)[nH]c2ccccc2c1=O | inconclusive [falling, single point] | –
35 | CCCCC(=O)Nc1ccc(F)c(Cl)c1 | inconclusive [falling, partial curve] | –
36 | O=C(CSc1nnc(-c2ccccc2)n1Cc1ccco1)NCc1ccc2c(c1)OCO2 | – | inactive: -9.3%
37 | O=c1c2c(-c3ccccc3)csc2nc2c3ccccc3c(NCCN3CCOCC3)nn12 | – | inactive: 12.8%
38 | CC1(C)CC(=O)C2=C(C1)OC1=C(C(=O)CC(C)(C)C1)C2c1ccc(O)cc1O | inconclusive [falling, partial curve] | –
39 | CC(C)NC(=O)N1CC(c2ccccc2)C(c2ccc(Cl)cc2)=N1 (stereo unspecified) | – | inactive: 6.01%
40 | O=C(CSC1CC(=O)N(CCc2ccccc2)C1=O)Nc1cccc(Cl)c1 (stereo unspecified) | inconclusive [falling, single point] | –
41 | O=C(COC(=O)c1cccs1)NCc1ccco1 | inconclusive [falling, single point] | –
42 | COc1ccc(NC(=O)c2ccc3ccccc3c2)cc1NS(=O)(=O)c1ccc(F)cc1 | inconclusive [falling, single point] | –
43 | COc1ccc(NC(=O)c2cc3n(n2)C(C(F)(F)F)CC(c2ccco2)N3)cc1 (stereo unspecified) | – | inactive: 2.55%
44 | O=C1CSC(=S)N1/N=C/c1ccc(O)c([N+](=O)[O-])c1 | inconclusive [activator, full curve] | –
45 | COc1ccc(C(=O)NN=C2CCCC2)cc1OC | inconclusive [falling, single point] | –
46 | O=C(COC(=O)/C=C/c1ccc(Br)o1)Nc1cccc(S(=O)(=O)N2CCOCC2)c1 | inconclusive [falling, full curve, poor fit] | –
